The source of these data is article PMC7819943, “Rice protein-binding microarrays: a tool to detect cis-acting elements near promoter regions in rice”.

The list shows a part of the results.

This assay concerns the target T1, OsWOX13 (Oryza sativa, UniProt Q5QMM3 1-267).
T1 sequence: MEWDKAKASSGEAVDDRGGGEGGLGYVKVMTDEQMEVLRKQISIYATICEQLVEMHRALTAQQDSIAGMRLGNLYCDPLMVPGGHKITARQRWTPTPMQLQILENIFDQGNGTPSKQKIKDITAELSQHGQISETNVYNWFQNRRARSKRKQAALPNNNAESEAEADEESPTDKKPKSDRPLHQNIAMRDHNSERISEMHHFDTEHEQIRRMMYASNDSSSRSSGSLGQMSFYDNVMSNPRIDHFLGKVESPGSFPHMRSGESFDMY
Nature of the assay: protein-binding microarray (RPBM); PBS, 2% BSA, 51.3 ng/ul salmon testes DNA, 50 uM zinc acetate, 200 nM TF, 25 C, 1 h; high values mean tight binding. Particulars: protein: recombinant; tags: N-terminal polyhistidine and DsRed monomer fusion (pET32a); label: CyDye5-dUTP incorporated in the synthesized complementary strand; 3' TTTTT single-stranded linker to array surface; dsDNA, one strand shown. In outline:
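Polyhistidine-tagged DsRed fusions of transcription factors, joined at the N-terminus, were expressed in E. coli BL21-CodonPlus and isolated on Ni–NTA. They were incubated at 200 nM for 1 h at 25 °C on a custom Agilent array, double-stranded and BSA-blocked, in PBS with 2% BSA, salmon testes DNA and 50 µM zinc acetate. The binding signal is per-feature fluorescence intensity (arbitrary units) read on an Axon 4000B scanner after washing.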
For “TGCACACCCTGTCATGAACTAATTAGCTCGATCATCACACCGGAGTCACCTAGTGCAG”, the binding signal is 11700 fluorescence intensity (a.u.). On to “AAGTGATTAAATTGGCACTATAAACATGTAGTTTTGTAATCGGAGTCACCTAGTGCAG”, for which the binding signal was 27500 fluorescence intensity (a.u.).

For the sequence “TGAGAGTGGCATTTAATTGAATCCTATTATGATGGTGGCACGGAGTCACCTAGTGCAG”, the binding signal was 16100 fluorescence intensity (a.u.). “TATAATTATTTCATATTTTATCTACTCCCAATGCTTTGCCCGGAGTCACCTAGTGCAG”: the binding signal was 27000 fluorescence intensity (a.u.).

On to “GGTTTTGATATATATAATCTCCTGGAACTGATATCCTGAACGGAGTCACCTAGTGCAG”, for which the binding signal is 5480 fluorescence intensity (a.u.). “TAATCATAGACTAATTAGGCTCAAAAGATTCGTCTAGTGACGGAGTCACCTAGTGCAG”: the binding signal is 3390 fluorescence intensity (a.u.).

Take “GTTAAATTTAAACTTGTATATTTGTGAAGTGATACATCACCGGAGTCACCTAGTGCAG”: the binding signal is 17300 fluorescence intensity (a.u.). As to “ACATGTGATTGGCACAGAAGGATAAATCCTCAACTTTCAACGGAGTCACCTAGTGCAG”, the binding signal is 20200 fluorescence intensity (a.u.). Take “ATGTTACATGTAACTAAACTAATTTAATCTCGTAGATGTACGGAGTCACCTAGTGCAG”: the binding signal is 7890 fluorescence intensity (a.u.). Turning to “TTGACCAATCAATTACTCACTGGTACGGAAAACACTATAGCGGAGTCACCTAGTGCAG”, the binding signal was 23300 fluorescence intensity (a.u.).

Take “TTCAATTGACGTCATAGAATCTATGGCATTAGACACATCTCGGAGTCACCTAGTGCAG”: the binding signal was 9210 fluorescence intensity (a.u.). Consider “CACAGTTGACGAGCTAGATCCAGATGAGTGAGGTTGTGAGCGGAGTCACCTAGTGCAG”, for which the binding signal was 4960 fluorescence intensity (a.u.).

In the case of “ACCTATTACCGTTTAAATTGGAAGATAGATATTGGATGAGCGGAGTCACCTAGTGCAG”, the binding signal is 19600 fluorescence intensity (a.u.). For “AAATAATTGTAATTCTAGAGTACTAATTGCCCCATCAATCCGGAGTCACCTAGTGCAG”, the binding signal is 34700 fluorescence intensity (a.u.).

For the sequence “CGCTGCGCTAATCACGCGCGGTCAGACGTTGACTACCATGCGGAGTCACCTAGTGCAG”, the binding signal was 7420 fluorescence intensity (a.u.).

Take “GTGCAGATTATAATTTGATTACTAATTTAGGAGAGGAAATCGGAGTCACCTAGTGCAG”: the binding signal was 29500 fluorescence intensity (a.u.).

As for “GCTTAATCAATCACCTCATCACACACTCTTAGCTAAGCTACGGAGTCACCTAGTGCAG”, the binding signal was 38400 fluorescence intensity (a.u.). As to “TGTCATGTCTAATATAAATTTATTTGAGATCTATAGGTAACGGAGTCACCTAGTGCAG”, the binding signal was 14400 fluorescence intensity (a.u.). Take “CATCATCTGATCTGATGATCAATCAAAATCTCCTACTAGTCGGAGTCACCTAGTGCAG”: the binding signal is 13500 fluorescence intensity (a.u.). Consider “ATAAGTTAATTTTCATTTGTTGGTCAACTGCAATATTTGACGGAGTCACCTAGTGCAG”, for which the binding signal is 7110 fluorescence intensity (a.u.). Consider “AAAACTCAATTAATTATACATTAATACCACCTTATTTTACCGGAGTCACCTAGTGCAG”, for which the binding signal is 20000 fluorescence intensity (a.u.). As to “TCAGCTTCATAATTATCTCAGTAACAGAACTGAACACATTCGGAGTCACCTAGTGCAG”, the binding signal is 7150 fluorescence intensity (a.u.). Consider “CAGTTCCAATCACACAACGCGACTGGCCACACCGGATGTGCGGAGTCACCTAGTGCAG”, for which the binding signal is 15600 fluorescence intensity (a.u.). Regarding “AATTAAATAGATTAACACAAACATGAACCCAACATGACCACGGAGTCACCTAGTGCAG”, the binding signal was 29700 fluorescence intensity (a.u.). Consider “AATATACTAATTACAAACAGGTCCCTCGTGGGCTCGTGGGCGGAGTCACCTAGTGCAG”, for which the binding signal is 14700 fluorescence intensity (a.u.).

For the sequence “AGTTGACAGTTCCAATTAATCGTTCATGCGACCCAATTGACGGAGTCACCTAGTGCAG”, the binding signal is 21500 fluorescence intensity (a.u.). Consider “TGTCCACTGAAATTGATTGGAGATCGATGTGATGGTCAAGCGGAGTCACCTAGTGCAG”, for which the binding signal was 40200 fluorescence intensity (a.u.).

With “CTTTAAATCAATAATTAAATATATTTTCATAATAAATTTGCGGAGTCACCTAGTGCAG”, the binding signal was 10500 fluorescence intensity (a.u.). As to “CAAACTAAATTATATCTAAATTAGAGTAAAGAAAACGAGTCGGAGTCACCTAGTGCAG”, the binding signal is 26600 fluorescence intensity (a.u.). “GCTTAACTGCTAGTACTACTAACACCTCACCTACCTCCCTCGGAGTCACCTAGTGCAG”: the binding signal was 11300 fluorescence intensity (a.u.). Turning to “TAGCTAATTCTTAATTAATTATACGCTAATGAATCACTTTCGGAGTCACCTAGTGCAG”, the binding signal was 23900 fluorescence intensity (a.u.). For “CGGCACTACCTGCAGTTGTAATTGACAGCCGGTCTCTTGTCGGAGTCACCTAGTGCAG” the value was 6560 fluorescence intensity (a.u.). Consider “CTAAATTTATAATACTATAATATGTTATATTCAGTTTTAGCGGAGTCACCTAGTGCAG”, for which the binding signal is 35900 fluorescence intensity (a.u.). The result for “TTAATCAAATTAATGTACTGGCAAGTCGGAAAACAATCCTCGGAGTCACCTAGTGCAG” reads 8170 fluorescence intensity (a.u.); that for “AATTAAATTAGAGTATTCAGTTTGTATATAGTACATTTGTCGGAGTCACCTAGTGCAG”, 14000 fluorescence intensity (a.u.); that for “TAACATCGCATTGGATATGATTGACATATAACCAATTTAACGGAGTCACCTAGTGCAG”, 8580 fluorescence intensity (a.u.). Take “CATGATTTATATTTCCAAGGTTTGACTTAAACATTGTCCTCGGAGTCACCTAGTGCAG”: the binding signal was 47200 fluorescence intensity (a.u.). For “TGGAGGGATTTGATTTGGAAAGGATTTGGATTCGGGATTGCGGAGTCACCTAGTGCAG”, the binding signal is 3870 fluorescence intensity (a.u.). The result for “TTTATTTATAAATTATATTTCGTTTGTATAAATATATTGTCGGAGTCACCTAGTGCAG” reads 4170 fluorescence intensity (a.u.). Take “GTTAGAATGATTAACTAGTAAAGTCGTTCACTCGGCAACGCGGAGTCACCTAGTGCAG”: the binding signal was 26100 fluorescence intensity (a.u.). In the case of “GGTGTATAAATTTACTAAAATAGGAAAGTAATGCGGTACCCGGAGTCACCTAGTGCAG”, the binding signal was 4010 fluorescence intensity (a.u.).

Turning to “TTAATTTACACCGGTTTTGATAGTCGAGGGAGGGACGAAACGGAGTCACCTAGTGCAG”, the binding signal was 4490 fluorescence intensity (a.u.).
